PubChem BioAssay AID624417 (National Center for Advancing Translational Sciences (NCATS), 2012)
The whole screen tested about 410,000 compounds, of which about 6,400 (1.6%) were called active. Inconclusive results, whose numbers are uncertain, are shown with a selection of clear calls. Calls come from the whole dose curve; as a rule, active = well fitted inhibition curve with a large enough effect; inconclusive = small, poorly fitted or top-dose-only effect; inactive = no such curve, though single readings can be large or run the other way. Potencies of inconclusive entries are doubtful fits and often do not repeat.

Target: Glucagon-like peptide 1 receptor (Homo sapiens) (UniProt P43220)
Experiment: qHTS of GLP-1 Receptor Inverse Agonists (Inhibition Mode); note: nearly all actives have a fitted effect of over 55% in size
Conditions: HEK293 GLP-1R CRE-luciferase, luminescence, 24 h, GLP-1R form is constitutively active; series mostly up to 38.3 µM
Method in brief: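 Seeding at 200 cells/uL, 12 h culture, 24 hr compound treatment, then luciferase reagent and a luminescence read; cells are HEK293 stably expressing a constitutively active GLP-1R plus cAMP-responsive luciferase.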
Potency is the fitted concentration of half-maximal effect; tags give direction and shape of the fitted curve.

Chain of UniProt P43220 (P43220 whole entry, looked up): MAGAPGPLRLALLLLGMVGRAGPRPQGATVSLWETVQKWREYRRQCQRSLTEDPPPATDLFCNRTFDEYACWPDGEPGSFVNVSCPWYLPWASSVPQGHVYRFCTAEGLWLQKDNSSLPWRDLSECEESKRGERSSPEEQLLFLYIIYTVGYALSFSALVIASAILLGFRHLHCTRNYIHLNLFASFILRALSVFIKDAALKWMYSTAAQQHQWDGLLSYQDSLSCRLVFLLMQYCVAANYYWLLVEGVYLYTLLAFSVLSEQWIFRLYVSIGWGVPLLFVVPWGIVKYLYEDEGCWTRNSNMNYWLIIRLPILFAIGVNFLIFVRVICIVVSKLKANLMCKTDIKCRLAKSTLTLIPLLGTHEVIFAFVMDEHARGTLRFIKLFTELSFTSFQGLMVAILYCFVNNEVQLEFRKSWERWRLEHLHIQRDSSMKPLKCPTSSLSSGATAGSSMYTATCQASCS

Potency, inactive:
COc1ccc(CCNC(=O)c2cccc(Nc3nc4ccccc4nc3-n3nc(C)cc3C)c2)cc1OC
FC(F)(F)c1ccc(C2[C@H]3CN(Cc4ccc(-c5ccccc5)cc4)[C@H](c4ccccc4)C34CC2(c2cccnc2)C4)cc1 (some centres not stated)
O=C(CSc1n[nH]c(-c2ccc(F)cc2)n1)NCc1ccccc1Cl
CCn1c(C(O)c2ccccc2)nc2ccccc21 (configuration not stated)
Cc1cc(Br)cn2c(Cc3ccccc3)c(-c3ccc(C#N)cc3)nc12
S=C(Nc1ccccc1Cl)N1CCCCCC1
O=C(Nc1cccn(Cc2ccccc2)c1=O)NC1CCCCC1
CCc1ccc(CNC(=O)c2cnc3sc(N4CCOCC4)nn3c2=O)cc1
O=C(NNC(=S)Nc1ccccc1)c1cccc(Br)c1
CC(=O)Nc1ccc2nc3c(=O)n(C)c(=O)n(C)c3nc2c1C
CCOCCCNC(=O)C(c1ccccc1)N1Cc2ccccc2C1=O (configuration not stated)

Potency, inconclusive:
C=CCn1cccc(C(=O)Nc2ccc(Cl)cc2)c1=O 28.2 µM [inhibitor, single point]
Cc1nn(-c2ccc(NC(=O)c3ccncc3)cc2)c(C)c1Cl 10 µM [inhibitor, partial curve, poor fit]
COc1ccc(C(=O)CC2(O)C(=O)N(Cc3cccc(C(F)(F)F)c3)c3ccccc32)cc1 (configuration not stated) 11.2 µM [inhibitor, partial curve, poor fit]
O=c1c2ccccc2sc2ccc(C#CC3(O)CCCCC3)cc12 1.78 µM [inhibitor, full curve, poor fit]
Cc1cc(Br)ccc1NC(=O)C(C)c1ccc([N+](=O)[O-])cc1 (configuration not stated) 11.2 µM [inhibitor, partial curve, poor fit]
CCC(C(=O)NCCCc1ccccc1)n1nc(C)c2c(C)n(-c3ccccc3)nc2c1=O (configuration not stated) 7.94 µM [inhibitor, partial curve, poor fit]
COc1ccc(-c2nc3cc(C)ccn3c2NC2CCCCC2)cc1SC1CCCCC1 5.01 µM [inhibitor, partial curve, poor fit]
CCOC(=O)C1(Cc2cccc(OC)c2)CCN(Cc2cccc(OC)c2OC)CC1 10 µM [inhibitor, partial curve, poor fit]
COc1ccc(C2C=C(c3ccc(Cl)cc3)Nc3nc(-c4ccc(Cl)cc4)nn32)cc1 (configuration not stated) 2 µM [inhibitor, partial curve, poor fit]
CCOc1c(Br)cc(C2CC(=O)Nc3cc4c(cc32)OCO4)cc1OC (configuration not stated) 3.98 µM [inhibitor, full curve]
CCC(C)C(=O)Nc1nc(C)c(-c2csc(Nc3ccc(Cl)cc3)n2)s1 (configuration not stated) 7.08 µM [inhibitor, partial curve]
CCc1cc(C(=O)OCC(=O)N2CCC(c3ccccc3)=N2)sc1C 11.2 µM [inhibitor, partial curve, poor fit]
CCCN1CCc2c(sc(NC(=O)c3ccc(S(=O)(=O)N(C)c4ccccc4)cc3)c2C(N)=O)C1 28.2 µM [inhibitor, single point]
CC(Oc1ccc(Br)cc1)C(=O)O/N=C(\N)c1ccncc1 (configuration not stated) 22.4 µM [inhibitor, single point]
CNC(=S)Nc1cc(Cl)ccc1Oc1ccccc1 3.98 µM [inhibitor, partial curve, poor fit]
O=C1CC(c2ccccc2)=Nc2ccccc2N1Cc1ccccc1 28.2 µM [inhibitor, single point]
COc1ccc(C(=O)N2N=C(c3cccc(NS(C)(=O)=O)c3)CC2c2cccs2)cc1 (configuration not stated) 12.6 µM [inhibitor, single point]
COC(=O)c1ccc(CNC(=O)CN2C(=O)NC(Cc3ccccc3)(c3ccccc3)C2=O)cc1 (configuration not stated) 8.91 µM [inhibitor, partial curve, poor fit]
CCOc1ccccc1N1CCN(C(=O)c2cn(CC3CCCCC3)nn2)CC1 28.2 µM [inhibitor, single point]
Cc1ccc(NC(=O)c2cccc(F)c2)cc1S(=O)(=O)N1CCCCCC1 8.91 µM [inhibitor, partial curve]
Cc1ccccc1CN1CCC(n2nccc2NC(=O)CCOc2ccccc2)CC1 11.2 µM [inhibitor, partial curve, poor fit]
COc1cccc(C(=O)OCC(=O)c2c[nH]c3ccccc23)c1O 3.98 µM [inhibitor, partial curve, poor fit]
COc1cccc(Cl)c1NC(=O)N1CCN(c2cc(C)nc3ccccc23)CC1 20 µM [inhibitor, single point]
CCN(CC(=O)Nc1ccccc1C(F)(F)F)C(=O)c1cc2c(s1)CCCCC2 20 µM [inhibitor, single point]
O=C(COc1coc(CN2CCc3ccccc3C2)cc1=O)Nc1ccc(F)cc1F 31.6 µM [inhibitor, single point]
CCCCCCSc1ccc(-c2nc3ccc(C)cn3c2NC2CCCCC2)cc1 28.2 µM [inhibitor, single point]
CC1=C(C(=O)OCc2ccc3c(c2)OCO3)C(c2ccc(F)cc2)NC(=O)N1 (configuration not stated) 1.41 µM [inhibitor, full curve, poor fit]
CC1(C)Cc2c(sc3nnn(Cc4ccc(Cl)cc4)c(=O)c23)CO1 12.6 µM [inhibitor, single point]
O=C(Nc1ccc(F)cc1)C1CCC(N2C(=O)c3ccccc3C2=O)CC1 (configuration not stated) 5.01 µM [inhibitor, full curve]
CCC(=O)c1ccc(OCC(O)CN2CCN(c3cccc(C(F)(F)F)c3)CC2)cc1 (configuration not stated) 3.55 µM [inhibitor, partial curve, poor fit]
O=C1CCSC2(C(=O)N(Cc3ccc(F)cc3)c3ccccc32)N1c1ccc(Cl)cc1 (configuration not stated) 15.8 µM [inhibitor, single point]
Cc1ccc(OCC(=O)Nc2ccc3c(c2)nc(CCN2CCC(C)CC2)n3C)cc1 31.6 µM [inhibitor, single point]
CCOC(=O)C1CCCN(C(=O)c2ccc3c(c2)C(C)(C)CCC3(C)C)CC1 (configuration not stated) 10 µM [inhibitor, partial curve]
CN(C)c1cccc(C(=O)N2CCCC(CCC(=O)NCc3ccccc3F)C2)c1 (configuration not stated) 28.2 µM [inhibitor, single point]
O=S(=O)(c1cccs1)N1CCN(Cc2cccc(F)c2)CC1 28.2 µM [inhibitor, single point]
O=C(Nc1ccc(F)cc1)Nc1ccccc1NS(=O)(=O)c1cccs1 28.2 µM [inhibitor, single point]
CCSc1nsc(NC(=O)Nc2cccc(OC)c2)n1 10 µM [inhibitor, partial curve, poor fit]
CC1(Cc2cccc(C(F)(F)F)c2)C(=O)Nc2ccc(-c3ccc(F)c(Cl)c3)cc21 (configuration not stated) 8.91 µM [inhibitor, partial curve, poor fit]
COc1ccc(N(C)C2=NS(=O)(=O)c3ccccc32)cc1 1.26 µM [inhibitor, full curve, poor fit]
Cc1ccc(OCC(=O)NC2CCCCCC2)cc1C 11.2 µM [inhibitor, single point]
c1ccc(-c2nc(NCc3ccco3)c3ccccc3n2)cc1 28.2 µM [inhibitor, single point]
Cc1ccc(C(=O)Cn2c(=N)n(CCN3CCOCC3)c3ccccc32)cc1 28.2 µM [inhibitor, single point]
O=C(CN1c2ccccc2Sc2ccccc21)N/N=C/c1ccccc1 7.94 µM [inhibitor, partial curve, poor fit]
COc1ccccc1CNC(=O)C(C)n1c(=O)cc(-c2ccccc2)c2c(C)nn(C)c21 (configuration not stated) 20 µM [inhibitor, single point]
CC(C)COc1ccc(C(=O)OCCN2CCCCC2)cc1 5.62 µM [inhibitor, partial curve, poor fit]
Cc1cc(C)cc(SCc2noc(C(=O)NCCN(C)C)c2C(=O)NCCN(C)C)c1 2 µM [inhibitor, full curve, poor fit]
COc1ccccc1C1CC(c2ccccc2)=NN1S(=O)(=O)c1ccccc1 (configuration not stated) 8.91 µM [inhibitor, partial curve, poor fit]
CCCCNC(=S)Nc1ccc(Oc2ccccc2)cc1 12.6 µM [inhibitor, partial curve, poor fit]
CC(Nc1nc(N2CCOCC2)nc2ccccc12)c1ccccc1 (configuration not stated) 10 µM [inhibitor, partial curve, poor fit]

Potency, active:
Cc1ccc(C(OCC(O)CNCc2ccc(F)cc2)c2ccccc2)cc1 (configuration not stated) 5.62 µM
CCN1C(=O)[C@H]2[C@@H](c3ccc(-c4cccc(Cl)c4)c(OC)c3)N[C@@](CC(C)C)(C(=O)OC)[C@H]2C1=O 7.94 µM
